This is one part of the list.
Each compound was assayed on T1, C. trachomatis L2/434/Bu expressing GFP (CTL2-GFP). Details: total inclusion area; 28.5 h, 10 µM; inhibitor.
T1 construct: L2/434/Bu GFP intracellular growth in HeLa cells
Parameters: species or system HeLa; C. trachomatis total inclusion area by high-content imaging, normalised to DMSO
Procedure, shortened: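 Host cell viability was gauged from Hoechst-stained nuclei counts, while chlamydial growth was taken from total inclusion area and inclusion number per well. Cells were fixed and imaged by high-content microscopy once bulk GFP and resorufin fluorescence had been measured.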

Point of comparison: `CC(=O)NCCC1CCN(c2nc(C(C)(C)C)nc3c2cnn3C)CC1` [CBK307364], “% of control remaining” value 99.7305. Against it:
- O=C(Cn1ncc2cccn2c1=O)Nc1cccc(F)c1 [CBK283702] — lower, 78.8522
- O=C(O)C1(Oc2ccc3ncccc3c2)CCN(C2CCCCC2)CC1 [CBK306591] — lower, 43.2452
- Cc1ccc2[nH]c(/C(C#N)=C\c3cn(CC(=O)Nc4ccccc4)c4ccccc34)nc2c1 [CBK267612] — lower, 82.008
- C=C(C)Cn1c(SCC(=O)O)nnc1-c1ccccc1 [CBK262737] — higher, 117.157
- O=C1CC(SCCc2nc3ccccc3[nH]2)C(=O)N1c1ccc(F)cc1 (stereo not shown) [CBK267500] — higher, 108.77
- COc1ccc(CSc2nnc(SCc3ccc(C(=O)O)cc3)s2)cc1 [CBK300477] — higher, 107.332
- CS(=O)(=O)Nc1nnc(C(F)(F)F)s1 [CBK038168] — lower, 90.9333
- CCOC(=O)C1CCN(C(=O)c2ccc(OC)cc2)CC1 [CBK074220] — higher, 99.9955
- CC1CCN(S(=O)(=O)c2ccc(C(=O)N3CCCCC3C(=O)O)cc2)CC1 (stereo not shown) [CBK297094] — higher, 102.616
- C#CCNC(=O)CC[C@H]1CNC(=O)[C@@H]2[C@@H](CCN2CC(C)(C)C)N1C [CBK289035] — lower, 95.9476
- CN1CCN(c2ccc3ccn(S(=O)(=O)c4ccc([N+](=O)[O-])cc4)c3n2)CC1 [CBK070757C] — lower, 24.311
- CC(=O)N[C@H]1CC[C@]2(C)CCC([C@H](C)C(=O)N3CCCCC3)[C@H](O)[C@H]2[C@@H]1C (stereo partly shown) [CBK289439] — higher, 135.982
- Oc1cccc(/C=N/n2c(S)nnc2-c2ccncc2)c1 [CBK265300] — lower, 92.1647
- Cc1cc(NC(=O)Cc2ccsc2)c2ccccc2n1 [CBK116259] — lower, 92.5474
- Cc1csc2ncc(C(=O)Nc3cc(C(F)(F)F)ccc3Cl)c(=O)n12 [CBK287465] — lower, 61.2923
- OC(CN1CCC(Oc2ccccc2F)CC1)c1cccs1 (stereo not shown) [CBK281433] — lower, 83.7758
- COCCN1CC[C@@H]2[C@@H](C/C=C/Cc3ccccc3OCC(=O)N2C)C1 [CBK292134] — lower, 69.9085
- COc1ccccc1CNCC1CCN(C(=O)OC(C)(C)C)CC1 [CBK056710] — higher, 99.7611
- Cc1noc(C)c1CN1CCN(CC(CC(=O)Nc2ccc(F)cc2)C(=O)O)CC1 (stereo not shown) [CBK286821] — higher, 100.103
- CS(=O)(=O)NC1CCCN(Cc2nc(N)c3ccccc3n2)C1 (stereo not shown) [CBK304889] — higher, 104.977
- O=C(NC(=O)N1CCOCC1)c1csnn1 [CBK005561] — higher, 101.034
- Cc1ccc(/C=C/C(=O)O)cc1S(=O)(=O)NC1CCS(=O)(=O)C1 (stereo not shown) [CBK264409] — higher, 109.791
- Cc1ccncc1C(=O)N1CCc2ccccc21 [CBK200400] — lower, 88.2609
- COc1ccc(C2NC(C(=O)O)CS2)c(OC)c1 (stereo not shown) [CBK260908] — lower, 83.0392
- CS(=O)(=O)N/N=C/c1cccc(Br)c1 [CBK026427] — lower, 56.9396
- Cc1nc(C(=O)N(CCO)Cc2ccccc2)cs1 [CBK304810] — lower, 28.1939
- Cc1nc2c(C(=O)N3CCNC(=O)C3)cnn2c(C)c1Cc1ccccc1 [CBK162197] — higher, 102.579
- COc1ccc(C(C)C)cc1-c1cn2ccnc2c(N2CCN(c3ccncc3)CC2)n1 [CBK066217] — lower, 41.6867
- NC1=NC(=O)C(CC(=O)Nc2ccccc2Cl)S1 (stereo not shown) [CBK039145] — lower, 90.3371
- COc1ccc2c(c1)cc(C(=O)NCc1cncn1CC(C)C)n2C [CBK307193] — higher, 111.214
- COc1ccccc1-c1nccnc1OCCn1cnc2c1c(=O)n(C)c(=O)n2C [CBK106816] — lower, 79.4088
- Cc1c(C(C)NCC(O)COc2ccc(C#N)cc2)cnn1C (stereo not shown) [CBK304881] — lower, 67.7214
- O=C(NCCSCc1ccc(Cl)cc1Cl)c1ccc(Br)cc1 [CBK264733] — lower, 88.7557
- O=C(Nc1ccccc1[N+](=O)[O-])c1cc(S(=O)(=O)Nc2ccccn2)ccc1Cl [CBK263229] — lower, 79.4679
- CCC1(CC)OC(NC23CC4CC(CC(O)(C4)C2)C3)=NC1=O [CBK107938] — lower, 94.9866
- O=C(Cc1c[nH]cn1)Nc1cccc2cc[nH]c12 [CBK160097] — lower, 90.9471
- COc1ccc(-n2cnnn2)cc1 [CBK001946] — lower, 28.6575
- O=C(OCCC1SC(NC2CC3C=CC2C3)=NC1=O)c1cc(C(F)(F)F)cc(C(F)(F)F)c1 (stereo not shown) [CBK056857T] — lower, 86.7138
- NC(=O)NS(=O)(=O)c1ccc(NC(=S)NC(=O)c2ccco2)cc1 [CBK261068] — lower, 98.7831
- CC(C)c1ccc(/C=C/C(=O)NC2CC2)cc1 [CBK149640] — lower, 49.7303
- O=C(O)c1ccc(NS(=O)(=O)c2ccc(NC(=O)c3ccccc3Cl)cc2)cc1 [CBK265184] — lower, 87.7644
- C=CCSC1=N/C(=C\c2ccc(C(=O)O)cc2)C(=O)S1 [CBK265057] — higher, 107.736
- Cc1ccc(S(=O)(=O)c2cc3c(=O)n4ccccc4nc3n(CCN3CCOCC3)c2=N)cc1 [CBK265637] — lower, 70.6785
- CN(Cc1nc(-c2ccccc2)no1)C(=O)C1CCOC1 (stereo not shown) [CBK306755] — lower, 60.215
- Cn1cc(-c2nc(C3COCCN3C(=O)c3cccc(Cl)c3)no2)cn1 (stereo not shown) [CBK305443] — lower, 65.0691
- C=CCNc1nccnc1-c1ccncc1 [CBK036845] — lower, 99.3238
- Cn1c(=O)c2c(ncn2CCOc2cnc(-c3cnn(Cc4ccccc4)c3)c(N)n2)n(C)c1=O [CBK145193] — lower, 85.5598
- CCCNc1nccnc1-c1cc(C)c(O)c(C)c1 [CBK037210] — higher, 104.042
- O=C(OCCC1SC(NC2CC3C=CC2C3)=NC1=O)c1c(F)cccc1F (stereo not shown) [CBK200057T] — lower, 90.8518
- CC(C)Nc1nc2ccccc2nc1Sc1ccncc1 [CBK115250] — higher, 110.273
- CCOC(=O)/C(C(=O)c1ccccc1)=C(/N)NCCO [CBK265621] — higher, 100.982

From publication PMC12040169 (PLOS Biology, 2025)
